Test results taken from PMC12136788.
The other results are listed elsewhere or left out.

T1: UNK ZnF1-3 (human, UniProt Q9C0B0 31-174)
T1 sequence: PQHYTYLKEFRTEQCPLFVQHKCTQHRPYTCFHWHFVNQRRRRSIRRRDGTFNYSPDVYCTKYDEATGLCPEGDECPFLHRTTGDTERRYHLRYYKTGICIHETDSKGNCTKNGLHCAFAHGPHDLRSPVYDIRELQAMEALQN

B1: 130301972_130310283_429_3pUTR_ENSMUSG00000026356_ENSMUST00000027602|mouse|control|control (ssRNA)
RNA: GGGAGUUCUACAGUCCGACGAUCGCAUGGUCUCCCACCGCCACAAGAGCCUGGACAUUAAACUGCUGCUGCCUCAGGACUAAGAAGCACUGCUUCCCUUUUGCUCUGCUUGUAUGAACUCUUGCACGGACCCAAACAACAUCACAACAGAGGAUUGAGCAUCA
B2: chr1:58468927:58468928:-_ENSMUSG00000026034_ENSMUST00000148330|mus_mus|mus_mus_mus_hu_False|38_48 (ssRNA)
RNA: GGGAGUUCUACAGUCCGACGAUCAAUUACUGAAAAAGAUGUUCAUUACCUUAGCUAUGUACUUAAUGAACCAAAUUACCCAAACAACAUAAAAUGUUUUACAAAUUAAUGUUAAGAAUUUACAAAGCUGUACAAAAUAACUUACAACAGAGGAUUGAGCAUCA
B3: 108160858_108160978_3285_3pUTR_ENSMUSG00000068747_ENSMUST00000102632|mouse|control|control (ssRNA)
RNA: GGGAGUUCUACAGUCCGACGAUCAGUACAGCCUGAAAGAGCUCAGAAGCAGCCAGUUUUGUCUUUAAUAGGUGUCAGAGCUAGUCAAUUCUCUGCCUCCCUCUUGCCACAAGUUAAAAAUAUUGCCCUGUAAGUUUUCCCUAUCAACAGAGGAUUGAGCAUCA
B4: 6328396_6329179_411_3pUTR_ENSMUSG00000041126_ENSMUST00000109737|mouse|control|control (ssRNA)
RNA: GGGAGUUCUACAGUCCGACGAUCUCUUUCCAAUCAGAGACUUGUGGAUGUGCGGGAUCACGCCGCCCCCGGCUAUGGUGGCCUUGAUAAGAGAAUCCAACUCUUCAUCACCGCGGAUUGCAAGCUGUAAGUGACGUGGGGUGACAACAGAGGAUUGAGCAUCA
B5: chr19:36946997:36946998:+_ENSMUSG00000024811_ENSMUST00000025729|mus_mus|FALSE|FALSE (ssRNA)
RNA: GGGAGUUCUACAGUCCGACGAUCAUAUUUUCCUUUUGCUGCAGCUUCAUGUAAAGGUGUGAACUUCCACAAGUCAGCGACAUUGACUACUGCUCCAUGCUUGACAAGAAGUUCUGCAACUUCAUAGUGUCCAUAAGAACAUGCCAACAGAGGAUUGAGCAUCA
B6: 47913461_47913581_2477_CDS_ENSG00000047849_ENST00000395734|human|control|control (ssRNA)
RNA: GGGAGUUCUACAGUCCGACGAUCGGCAACAGCAGCAGCUGUUGUGGUUUUUGCAACAGUCUGAGUGCUCUUGGACCCAGAUCUGGAGGCUGGGGCAGAAGCUGGCUUGGAUGGUGAGGCCCGCUUCUCAGGAGCCUUUGCAUCCAACAGAGGAUUGAGCAUCA
B7: chr12:84935825:84935826:-_ENSMUSG00000042628_ENSMUST00000048319|mus_mus|motif|central (ssRNA)
RNA: GGGAGUUCUACAGUCCGACGAUCUCCCACUGCAUGCAUAACUCUCCUGGCACAUGAGCCCCGGAUUUAGGCCCUUCUCUGCGGGGGAAGUCUGGGCACUCAUAACUUAGACUCGUUUGGAAACCACCCACCCUGCAACAGUCACAACAGAGGAUUGAGCAUCA
B8: chrX:43605437:43605438:+_ENSG00000189221_ENST00000338702|hu_hu|FALSE|FALSE (ssRNA)
RNA: GGGAGUUCUACAGUCCGACGAUCAAGAAGUUUAAAUCAGCAUUUCCCAAAAGGUGUGUCAGGACUGAGUUAAUCAGUAAGCUAAUAGAAACAACUGCAAUAGACUAGGGAUGAGAUUUCUCAAAGCAGUCUGAUAUAAUAUGCCAACAGAGGAUUGAGCAUCA
B9: chr3:9412954:9412955:+_ENSG00000134077_ENST00000452837|hu_mus|hu_hu_hu_mus_False|38_68 (ssRNA)
RNA: GGGAGUUCUACAGUCCGACGAUCGGUUGAUAUCUCUUCUUUGAUGGCUGGAUUUUCAUAAUAGUCCAAGAUAUGAGAAUCUGAAGUGCUGCUGGCAAACUCUUUUUUACCAUCUUUCUCAUCUGCUUUGUCUCCUUGUCCACACAACAGAGGAUUGAGCAUCA
B10: chr14:89307221:89307222:+_ENSG00000165533_ENST00000346301|hu_mus|hu_hu_hu_mus_False|28_108 (ssRNA)
RNA: GGGAGUUCUACAGUCCGACGAUCUCCUGUCUGAUUAGUGCCAGGGAGCUUCAAAGAUGUGCCAGGGCGUGGGACCUGAGCAAUAGCAUUUUCAUCCAGGAUCAUUUCUGCAAUUCCUUCCUGGUCCACAUCAAUUUCAUCUAUCAACAGAGGAUUGAGCAUCA
B11: chr10:33214929:33214930:-_ENSG00000150093_ENST00000302278|hu_hu|hu_hu_hu_mus_True|8_98 (ssRNA)
RNA: GGGAGUUCUACAGUCCGACGAUCAACAAGUUCAUUGAAUACUUCUCCUCUGUCAGUAAGACUAAGCACAUUUUUGUAGCUAAAUGGGCUGGUGCAGUUUUGUUCACUUGUACAAGGAUUUCUUAGCUUAGCUGGUGUUGUGCUCAACAGAGGAUUGAGCAUCA
B12: 75008230_75008350_2263_CDS_ENSMUSG00000034593_ENSMUST00000123128|mouse|control|control (ssRNA)
RNA: GGGAGUUCUACAGUCCGACGAUCCUGGCCAGGUCGGCCCUUGGUGGGCUUUACAGGAACUCGAGUGAGAGGAGUGCGCCCUGAGGAGGUGGCAGAGGUGGGACUGAUGGCCUUCUCAUCAUCUUGAAAUAGCUCUGGUAGCAUCAACAGAGGAUUGAGCAUCA
B13: 152117304_152117424_2211_3pUTR_ENSMUSG00000070348_ENSMUST00000093962|mouse|control|control (ssRNA)
RNA: GGGAGUUCUACAGUCCGACGAUCUCCCCAAUCUCCUUGUCCAGGUAAUGCCAUCAUGGUUCCUACUUCCAAACACCAGCUGGCACCAAAGGAUCCCUUCAACUUUGCAGGACAGAUCCCGGUGGUGCGAGAACAGAGUUCUCUCAACAGAGGAUUGAGCAUCA
B14: chr5:72858467:72858468:-_ENSG00000164331_ENST00000296785|hu_mus|FALSE|FALSE (ssRNA)
RNA: GGGAGUUCUACAGUCCGACGAUCUUUAAAUAAGACAGAUGCCACCUCCAGGUCAGAGUUAACUUGAUCUUGAAUAUUUUUACUAUCCUCUUCAUUUAAGGACUUCACGAAUCGAGAACACACGUUCAUAUCAAAUCGGUUUGGCAACAGAGGAUUGAGCAUCA
B15: chr2:69032557:69032558:-_ENSMUSG00000005233_ENSMUST00000005365|mus_hu|FALSE|FALSE (ssRNA)
RNA: GGGAGUUCUACAGUCCGACGAUCAUUGGCAAGAAAAGCUGAAAAAUUGUUGGUCUUCCUUACAUUCUCUUGAAAUUCUGCUAGGCCCUCAAGAUGAGGGGCACUAUCUGACACUUCAUAGUCCCUUGCUUCAUUGAGAUGUAACAACAGAGGAUUGAGCAUCA
B16: chr4:76721835:76721836:+_ENSG00000138768_ENST00000264904|hu_mus|hu_hu_hu_mus_True|48_98 (ssRNA)
RNA: GGGAGUUCUACAGUCCGACGAUCGUUUGGCUGGGGUUCUGAGAUGCCUCUGGAAUAUAACUCAUGUUUGCUAAUAAAUCCUAGUUUUCUAUGAAAUUUCUCUUUGCCAAUCCUCUUCUCUAUUAGUUGCUUUAGUUUCUCUUUCAACAGAGGAUUGAGCAUCA
B17: 99248344_99248570_1061_CDS_ENSMUSG00000019761_ENSMUST00000103131|mouse|control|control (ssRNA)
RNA: GGGAGUUCUACAGUCCGACGAUCACCCUGAACAGUACGUCUCAAUUCAGUGAUUUCAGACUUAUGGCUGGACAUUUGUUCAAUGUUGCUGUCGAUUUCUGUGGUGAGUUCCUUGCUCUUCUGAUUGAACCACUCUUCAGCAUCCAACAGAGGAUUGAGCAUCA
B18: chr16:38184571:38184572:+_ENSMUSG00000022812_ENSMUST00000023507|mus_hu|FALSE|FALSE (ssRNA)
RNA: GGGAGUUCUACAGUCCGACGAUCCAGCUGAUACAUAUACAACUUGACAUAAAUCACAGGGAGCGUCUGUUUGGCUCGACUAUAGUGUCUGGCAACUCUGUAUACUGUUUCCGGAACAUAGUCCAGCACCAGAUUAAGAUAGACCAACAGAGGAUUGAGCAUCA
B19: 79779014_79781414_1272_CDS_ENSG00000148606_ENST00000372371|human|control|control (ssRNA)
RNA: GGGAGUUCUACAGUCCGACGAUCUUUGUUUACCUUCUCAGGAAAAGUUAGAAUUUUGGCCACAUGAACUGGCACAGCUACCUCAUCAAUCCGGAGGUUGGGGUCGGGCGAGAUGACUGUUCUGCCAGAAAAAUCCACUCUCUUCAACAGAGGAUUGAGCAUCA
B20: chr19:16212804:16212805:+_ENSG00000167460_ENST00000300933|hu_mus|hu_hu_hu_mus_False|58_88 (ssRNA)
RNA: GGGAGUUCUACAGUCCGACGAUCAACAAUUCUGGAGUGAAGGAAAGCAUCAAGGAUGAACAGCAUUAAAGCUCAGUAUUACUAUAUAUGGGCAACAAUGAUCACCCCAGCAUUCUCGCUUGGAAUGCUUAAAGACAAUCUGUUCAACAGAGGAUUGAGCAUCA
B21: chr8:104447970:104447971:+_ENSG00000164934_ENST00000297579|hu_hu|hu_hu_hu_mus_False|68_98 (ssRNA)
RNA: GGGAGUUCUACAGUCCGACGAUCAUACACUUCCCUGCUUCGACUUUUGUCCACAGGAAAGAUUCUAAUAGAUUUAUCAAAGCUGGCAGACACAAAUUCCUUCCCAGUGGGAGAGUAGUCCACAUCAAGUACUGCAGACACGUGCAACAGAGGAUUGAGCAUCA
B22: chr16:32019706:32019707:-_ENSMUSG00000022781_ENSMUST00000023467|mus_mus|FALSE|FALSE (ssRNA)
RNA: GGGAGUUCUACAGUCCGACGAUCCCCUUUCAGUUUAGGCUCUGAACUGAAACACUCCGCACACCAGCCGGUCCUGACUUCUAUAGGAAGCUAAGCAUGUCAAGCUCCUUUCCCAAUGUAAAGAGCUACAUCAAUCAUUUUAUCCAACAGAGGAUUGAGCAUCA

Molecular target: T1, UNK ZnF1-3
Test: nsRBNS (natural sequence RNA bind-n-seq); RBNS binding buffer (assumed for nsRBNS): 25 mM Tris pH 7.5, 150 mM KCl, 3 mM MgCl2, 0.01% Triton X-100, 500 ug/ml BSA, 20 U/ml SUPERase-In, 4 C; UNK is unkempt and MSI1 is Musashi-1; names of the RNAs are library labels; protein concentration not given here; high values mean tight binding

| Binder | binding signal [enrichment R] |
| --- | --- |
| B1 | 1.28 |
| B2 | 0.462 |
| B3 | 1.71 |
| B4 | 0.897 |
| B5 | 0.761 |
| B6 | 0.637 |
| B7 | 1.34 |
| B8 | 1.9 |
| B9 | 0.523 |
| B10 | 0.728 |
| B11 | 0.821 |
| B12 | 1.43 |
| B13 | 0.935 |
| B14 | 0.905 |
| B15 | 0.614 |
| B16 | 0.527 |
| B17 | 0.354 |
| B18 | 0.903 |
| B19 | 0.902 |
| B20 | 1.31 |
| B21 | 1.02 |
| B22 | 1.01 |
